Measurements taken from the supplement of paper PMC7125110.
± gives the standard error. This sample is rich in variants without activity.

B1: glmS ribozyme (parent)
chain: AUAAAAGCGCCAGAACUACAGAAAUGUAGUUGACGAGGAGGAGGUUUAUCGAAUUUUCGGCGGAUGCCUCCAAA

Assays:
Conditions in all cases: with glucosamine-6-phosphate
glucosamine-6-phosphate [1] = variants of: B1; test: self-cleavage kobs at 640 uM GlcN6P; higher = faster cleavage; RNA array
In short: (§1)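 Glucosamine-6-phosphate (40 μM to 10 mM) in HEPES/KCl/Mg(OAc)2 buffer was flowed over sequenced MiSeq chips, and tiles were imaged over ~14 h. Barcoded ribozyme variants there had been transcribed in situ by E. coli RNA polymerase and were tracked through a hybridised Cy3 probe at 37 °C. One- or two-exponential decay fits to per-tile medians, normalised to baseline and to non-cleaving reference variants, gave kobs. kcat and KM came from weighted Michaelis–Menten fits across concentrations.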

glucosamine-6-phosphate [2] = variants of: B1; test: self-cleavage kobs at 2500 uM GlcN6P; higher = faster cleavage; RNA array
In short: as §1

glucosamine-6-phosphate [3] = variants of: B1; test: self-cleavage kobs at 10000 uM GlcN6P; higher = faster cleavage; RNA array
In short: as §1

glucosamine-6-phosphate [4] = variants of: B1; test: self-cleavage kobs at 160 uM GlcN6P; higher = faster cleavage; RNA array
In short: as §1

Row | Variant | self-cleavage kobs at 640 uM GlcN6P (glucosamine-6-phosphate [1]) [s⁻¹] | self-cleavage kobs at 2500 uM GlcN6P (glucosamine-6-phosphate [2]) [s⁻¹] | self-cleavage kobs at 10000 uM GlcN6P (glucosamine-6-phosphate [3]) [s⁻¹] | self-cleavage kobs at 160 uM GlcN6P (glucosamine-6-phosphate [4]) [s⁻¹]
1 | C10A G29U | < 1e-05 | < 1e-05 | < 1e-05 | 
2 | G9C U49C | < 1e-05 | < 1e-05 | < 1e-05 | < 1e-05
3 | C10A U30G G66C | < 1e-05 | < 1e-05 | < 1e-05 | < 1e-05
4 | G9U C16G G60A | < 1e-05 |  |  | 
5 | C10A U56A C70U | 6.36e-05 ± 2.6e-05 | 0.000147 ± 6.5e-05 |  | 
6 | G9C A14G G37U G62C C71A | < 1e-05 | < 1e-05 |  | 
7 | G9C C34U U49C U65G | < 1e-05 |  |  | 
8 | G9A U57G G63U | < 1e-05 | < 1e-05 |  | < 1e-05
9 | G9C G32C A48G | < 1e-05 | < 1e-05 |  | < 1e-05
10 | G9U G29C G41U U45C A64U | < 1e-05 |  |  | < 1e-05
11 | C10A G13C A15G G60C | < 1e-05 | < 1e-05 |  | < 1e-05
12 | G9A C16U A42U | < 1e-05 | < 1e-05 |  | 
13 | C10A G44U U65G | < 1e-05 | < 1e-05 |  | 
14 | G9C C16U U47C A53C U54C U56C C58U G59A | < 1e-05 | < 1e-05 |  | 
15 | C10A C11G A39U | < 1e-05 | < 1e-05 |  | < 1e-05
16 | C10A A42G U47C C50G C70U | < 1e-05 |  |  | 
17 | G9C G44C | < 1e-05 | < 1e-05 |  | 
18 | G9C A39G G40U | < 1e-05 | < 1e-05 | < 1e-05 | 
19 | G9C C50A C61U G63C | < 1e-05 | < 1e-05 |  | 
20 | G9C A53C C70U | < 1e-05 | < 1e-05 |  | 
21 | G9C A14C C34U | < 1e-05 | < 1e-05 |  | 
22 | G9A C58G U65A | < 1e-05 | < 1e-05 |  | 
23 | G9U G62A C68U | < 1e-05 | < 1e-05 |  | 
24 | G9C G38A C70U | < 1e-05 | < 1e-05 |  | < 1e-05
25 | G9C G38U | < 1e-05 |  | < 1e-05 | < 1e-05
26 | G9U C10A C11A C68A | < 1e-05 |  |  | 

Row | Variant | self-cleavage kobs at 640 uM GlcN6P (glucosamine-6-phosphate [1]) [s⁻¹] | self-cleavage kobs at 2500 uM GlcN6P (glucosamine-6-phosphate [2]) [s⁻¹] | self-cleavage kobs at 10000 uM GlcN6P (glucosamine-6-phosphate [3]) [s⁻¹] | self-cleavage kobs at 160 uM GlcN6P (glucosamine-6-phosphate [4]) [s⁻¹]
27 | G9C C61U | < 1e-05 | < 1e-05 | < 1e-05 | < 1e-05
28 | C10A A36C G38U G40C | < 1e-05 | < 1e-05 |  | < 1e-05
29 | G9A C67U C70U | < 1e-05 |  | < 1e-05 | 
30 | G9U C58G G59C | < 1e-05 | < 1e-05 |  | 
31 | G9A G13C U54G U69G | < 1e-05 |  |  | 
32 | G9C A12C G13U G44U C67A | < 1e-05 |  |  | 
33 | C10G A15G A39U G60C C68A | < 1e-05 | < 1e-05 |  | 
34 | G9U A15U A39U U69C | < 1e-05 |  |  | < 1e-05
35 | C10A G32U | < 1e-05 | < 1e-05 |  | < 1e-05
36 | G9A U49G G62U | < 1e-05 | < 1e-05 |  | 
37 | G9C A33C A53U | < 1e-05 | < 1e-05 |  | 
38 | G9C A53C G62U | < 1e-05 | < 1e-05 | < 1e-05 | < 1e-05
39 | G9C C10A | < 1e-05 | < 1e-05 | < 1e-05 | 
40 | G9U G44C U65G | < 1e-05 |  |  | < 1e-05
41 | G9C U31C | < 1e-05 | < 1e-05 | < 1e-05 | < 1e-05
42 | G9C G59A | < 1e-05 | < 1e-05 |  | < 1e-05
43 | G9C G29A A48C | < 1e-05 | < 1e-05 |  | < 1e-05
44 | G9C A48G | < 1e-05 | < 1e-05 |  | < 1e-05
45 | G9C A48U | < 1e-05 | < 1e-05 |  | < 1e-05
46 | C10G A15U G37C | < 1e-05 |  |  | 
47 | C10A G13U A52C | < 1e-05 | < 1e-05 |  | 
48 | C10A A12C G59U | < 1e-05 | < 1e-05 |  | 
49 | G9C C16G C34U | < 1e-05 |  |  | 
50 | G9U U31C G35U A42G C61A C67A C70U | < 1e-05 |  |  | 
51 | C10A G62C G63U | < 1e-05 | < 1e-05 |  | 
